Test results published in the supplement of paper PMC10126150.
Sequences with one replicate were seen in a single cluster, so their values are uncertain.

System: ATP
Assay: switch fluorescence ratio, 500 uM ATP over buffer (Cy3 cluster intensity, sum of 5 cycles each) (fold (ratio)); higher = stronger signal-on switching upon ATP binding; sequences stand for … in TCGTCGGCAGCGTCAGATGTGTATAAGAGACAGTTTTTTTTTTTTTTTTTTTTTTTTT…TC
Conditions: aptamer strand: ATP DNA aptamer (quencher-CACCTGGGGGAGTATTGCGGAGGAAGG + anchor), 100 nM annealed; ATP concentration: 500 uM; one replicate
Outline: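 After annealing to 100 nM quencher-labelled ATP aptamer, Cy3-labelled switching-strand clusters on a modified Illumina MiSeq flow-cell were imaged in selection buffer. A second image followed after 15 min with 500 uM ATP at 22 °C, and five such buffer/ATP cycles were done, each separated by NaOH stripping and re-annealing. The fluorescence ratio, averaged per switch-domain sequence, is summed target-cycle over summed buffer-cycle Cy3 intensity per cluster, with clusters outside 100-1000 RFU excluded.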
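Also: ATP exposure 15 min at 22 °C before imaging.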

Row | Sequence | switch fluorescence ratio
1 | GTGTAATCGC | 1.03
2 | ACATAGAACT | 1.05
3 | GTGGACGACA | 1.04
4 | CCGCCACCCG | 1.73
5 | TGCGCCCTAA | 1.01
6 | TGTGTCCGCT | 1.03
7 | GGATCCTTGG | 1.04
8 | TGGGGTTGA | 1.06
9 | CTGAATCAGT | 0.979
10 | GAAGTACTAG | 1.18
11 | GCGAGGTTTT | 0.971
12 | CTGTTCAAGT | 1.02
13 | ATAATACCTA | 1
14 | TGCCCATTTT | 1
15 | CTGGAAGCAT | 1.54
16 | GCGGGGGTT | 1
17 | TTAGGTAGCT | 0.992
18 | TCAAACGTCA | 1.07
19 | TTAGGCGTTA | 0.951
20 | GAAGAGAGGA | 0.96
21 | CGTTCTTTGT | 0.995
22 | AGGAATTAAA | 1.05
23 | GACGGAAACT | 1.33
24 | GGTCCCTGGT | 1
25 | GAATTGTTGG | 0.995
26 | AGTAAGGTGA | 1.17

Row | Sequence | switch fluorescence ratio
27 | TTGCGGATGG | 1.03
28 | CAATAAGGGC | 0.957
29 | AGAAGAGGAG | 0.983
30 | TACCAGCACG | 1.15
31 | ATATTCGAGC | 0.992
32 | GGGTCTTAAC | 0.992
33 | TAAGTGTAAG | 0.959
34 | TGTGTCACG | 1.01
35 | AATAGTTAGC | 0.97
36 | TACAGGTACC | 1.03
37 | TGTGCGCGTT | 1.03
38 | GCGTCTGAAT | 0.99
39 | GAAGGATGAA | 0.988
40 | GGAAGTATC | 0.986
41 | TAAACTTGCG | 0.998
42 | GATACTCATC | 0.984
43 | TTAAGAGCTG | 1.02
44 | AGTATGAGGA | 1.03
45 | TATGGGGCCG | 1.06
46 | AGTAACCCGT | 0.952
47 | AAATCTTGGA | 0.974
48 | ATGTGCATT | 1.03
49 | TCTAGTCACA | 1.03
50 | CGTAATCTGA | 1.05
51 | AAGGGGCTGG | 1.01
52 | ATACATATCG | 1.13

Row | Sequence | switch fluorescence ratio
53 | GGCTGTGGCA | 0.994
54 | AAGTATGAAC | 0.98
55 | GTAGCAGCTG | 1
56 | CTGTCTATGG | 1
57 | CGTCCGTATA | 3.29
58 | CCGGGAAATG | 1.56
59 | TGCTTATCAT | 0.99
60 | TCGGAGAAAC | 1
61 | AGGAAGCATG | 0.986
62 | TCAAGATCTG | 0.942
63 | CAAGTTGCAC | 1
64 | TTAGTGGTCT | 1.03
65 | CTCTTCCAG | 1.07
66 | TTTAGACAAC | 1.01
67 | ATTTGAAAGC | 1.05
68 | AGTAAAGAT | 0.988
69 | TAGATGGGCT | 1.01
70 | TTGACTAGGG | 1.08
71 | ACCTGAAGGC | 1
72 | CGTACGACGT | 0.963
73 | GCTTGCGGTT | 0.988
74 | TACCCGATG | 1.04
75 | GGTCAGGTGC | 2.84
76 | AGGCGAGTGT | 0.989
77 | CGGTCTGTTT | 1.02
78 | CGGGCACTGA | 1.01

Row | Sequence | switch fluorescence ratio
79 | TATAACATTA | 0.964
80 | CCCTGCACAT | 3.51
81 | AATTCGGGCC | 1.38
82 | CGACGTAAGG | 1.33
83 | TCGCTGGTTA | 0.985
84 | TTTCATCAAA | 1.02
85 | CGCGAATACT | 2.73
86 | GGGCCCTAAG | 0.962
87 | CAAGGAGACA | 1.01
88 | GGGAGTGAAG | 1.01
89 | GAACAGGACG | 1.1
90 | CCCATATCAC | 1.19
91 | CCAGCTGGTC | 0.981
92 | CTCGGGGTTC | 0.946
93 | GGTGCACATA | 0.991
94 | CTCCCGTGGA | 1.13
95 | GAATATCAAA | 0.985
96 | CGGCTAATCA | 1.01
97 | TCATGCGATG | 1
98 | TTTGATGGAG | 0.998
99 | CGTTCTTAC | 1.13
100 | ATGGAGGTCC | 1.01
101 | TACATGATA | 0.999
102 | GACTTGCCTA | 1.01
103 | GGGACTTAGG | 1.01
104 | TGACTTTTG | 0.92

Row | Sequence | switch fluorescence ratio
105 | TTGGATGGCA | 1.05
106 | TGGGACCAC | 0.979
107 | AATGGAGTTA | 1
108 | GTGTGTATAA | 0.976
109 | GGGCTAGAAA | 1.01
110 | TCAACATTAC | 1.41
111 | AGTATATGTC | 0.924
112 | TAGGGTTAGA | 1.03
113 | ACGCCTGACA | 1.15
114 | AAGTGACCCA | 1.04
115 | GTATGCCCTG | 1.02
116 | GCAGAAGTTA | 1.03
117 | TGTGTATTAT | 1.23
118 | TGCTAAAGTC | 0.964
119 | ACACTGGATT | 1.04
120 | TTACGAAGCC | 1.44
121 | CGTTTTTTAA | 1.03
122 | CCACGTGAGA | 1.07
123 | TCTGTTACCA | 0.973
124 | CTAGTTATGG | 1
125 | GGTGGCGCGG | 1.01
126 | TTATGAGAAA | 0.977
127 | ATTTTCACGA | 1.01
128 | TCAGGACCAG | 1
129 | TACTTTGA | 0.979
130 | CCGGAGGAAA | 0.995

Row | Sequence | switch fluorescence ratio
131 | AGACTAATCA | 1
132 | CGACGGTGA | 1.08
133 | GGGTCATTTC | 1.05
134 | GCCGCGGTGT | 1.04
135 | GACTTAACAG | 0.991
136 | CGCCCATTTA | 0.97
137 | CCAGTACGGC | 1.01
138 | GCATAAACGG | 0.956
139 | GGCCGACAGA | 1
140 | TGTGAGGGTG | 1.13
141 | GCGCAGTCAT | 1
142 | GCACTATTTA | 0.997
143 | ATATGATCGT | 1
144 | TCGGTAGGAG | 1.01
145 | TTGAACGCTA | 2.29
146 | TCAAAGCTTA | 1.02
147 | GGTACGTGA | 1.13
148 | GCATTAGAGT | 1.01
149 | AGATGGTGGA | 0.99
150 | GCTCGTACTA | 1.04
151 | GGCAAATCGA | 1.02
152 | GGTTATGATG | 0.975
153 | GGCATAGTT | 1
154 | CTAACACGTG | 1.01
155 | GATTGGAGAG | 1
156 | GAGTGTTCGT | 0.983

Row | Sequence | switch fluorescence ratio
157 | TACTAGCTTT | 0.985
158 | CCTGGTTTAA | 0.995
159 | TGCAAGAACG | 0.995
160 | CTCACGTGTC | 1.04
161 | AAGATGGCTA | 1.04
162 | GGCCCTGGAC | 1
163 | TATATATGCA | 1.02
164 | GGGCAGTAAT | 1.02
165 | TGAGGGGCA | 1.05
166 | AGAATGACGA | 0.961
167 | TTATTAGTAA | 0.999
168 | TCCAGAATTG | 0.94
169 | AGTACGACGG | 1.01
170 | ATACCCAACA | 1.1
171 | TTTCTGTAGT | 1.05
172 | TAGGGACCAA | 1.01
173 | ATGGTGATAC | 1.36
174 | TGGGTGTATT | 0.981
175 | TTGGCTGGAT | 0.994
176 | GCGGGTTGTG | 0.968
177 | ACTTGGACG | 1.03
178 | CTGGGGTGG | 0.94
179 | CATAGTTTAC | 1.04
180 | CGGTTCAGGG | 0.979
181 | CATGAAGAAG | 1.01
182 | TGGTATTAAA | 1.03

Row | Sequence | switch fluorescence ratio
183 | CAAGCAGGAT | 1.08
184 | TTCTAACTGA | 0.988
185 | ACGGGAAAGA | 1.05
186 | CCGTGCCTTG | 0.986
187 | ACTCCCAACA | 2.58
188 | TGAGTGGTAG | 0.995
189 | AGCCAGATCA | 1.02
190 | CAATGTCGT | 0.98
191 | CAATCTAGTG | 1.02
192 | GATCTAGCTG | 1.03
193 | GTGATGTTAT | 1.01
194 | TATGCGTTG | 0.971
195 | CAGAGCGAGG | 1.03
196 | AGGGAACATC | 1.03
197 | ATTTTGACAT | 0.996
198 | CTACAAGCGG | 0.992
199 | GTGTGGGATA | 0.989
200 | AGCCCAGTTT | 1.02
201 | GCTATGGGTT | 0.987
